In a collection of fitness landscapes (doi:10.1038/s41467-024-54723-y):
In all, about 18,000 sequences were measured (“TetR repression strength (sort-seq, GFP reporter)”: median about 0.23, highest 2% from about 0.68 on). This is one part of the list.

molecular target: TetR (class B, Tn10) (UniProt P04483); assay: TetR repression strength (sort-seq, GFP reporter) (relative to tetO2 = 1); higher = stronger repression; settings: E. coli
In short: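 In LB with 50 µg/mL chloramphenicol, E. coli SIG10-MAX holding a low-copy library with eight randomized operator positions between a constitutive promoter and sfGFP, plus constitutive TetR, grew for 5 h at 37 °C. FACS then sorted 10^6 cells into 13 fluorescence bins for Illumina sequencing of each bin. Repression strength equals the top bin index plus one less the read-weighted mean bin, normalized to the unaltered operator. Values from three independent transformations were averaged when reads were ≥30 in every replicate and the CV was ≤0.5.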

Sequence of UniProt P04483 (P04483 whole entry): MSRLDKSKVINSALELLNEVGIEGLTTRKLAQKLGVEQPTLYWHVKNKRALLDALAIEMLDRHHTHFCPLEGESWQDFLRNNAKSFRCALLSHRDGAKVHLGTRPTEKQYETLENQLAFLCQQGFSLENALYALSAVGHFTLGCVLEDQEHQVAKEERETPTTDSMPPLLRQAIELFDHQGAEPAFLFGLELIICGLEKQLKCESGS

| Sequence | TetR repression strength |
| --- | --- |
| TCCCAGGTAGTTGAAGAGA | 0.227 |
| TCCCGATGAGTGATCGAGA | 0.216 |
| TCCCCTCAAGTTACTGAGA | 0.571 |
| TCCCCTCTAGTGTTTGAGA | 0.945 |
| TCCCGGGCAGTCATGGAGA | 0.356 |
| TCCCGATTAGTGTGCGAGA | 0.325 |
| TCCCGGCGAGTGTCCGAGA | 0.00305 |
| TCCCCGTAAGTGCAGGAGA | 0.21 |
| TCCCTGGGAGTATGTGAGA | 0.444 |
| TCCCAACAAGTTGCGGAGA | 0.236 |
| TCCCGAAAAGTGTGGGAGA | 0.173 |
| TCCCAGAAAGTAAGCGAGA | 0.126 |
| TCCCACAGAGTGAGGGAGA | 0.402 |
| TCCCAACCAGTCTTTGAGA | 0.36 |
| TCCCAACGAGTGAATGAGA | 0.163 |
| TCCCGTGAAGTGATAGAGA | 0.216 |
| TCCCTTGAAGTGCAGGAGA | 0.0288 |
| TCCCGGCGAGTAAATGAGA | 0.218 |
| TCCCGAGGAGTCGACGAGA | 0.389 |
| TCCCGTGAAGTGCGGGAGA | 0.176 |
| TCCCAACCAGTTCCCGAGA | 0.38 |
| TCCCCAAGAGTGGGGGAGA | 0.229 |
| TCCCTTAGAGTAATTGAGA | 0.134 |
| TCCCGTTGAGTATACGAGA | 0.185 |
| TCCCGCCCAGTCAATGAGA | 0.249 |
| TCCCATGCAGTGTGTGAGA | 0.138 |

| Sequence | TetR repression strength |
| --- | --- |
| TCCCGACTAGTGGTCGAGA | 0.118 |
| TCCCGTACAGTCCGTGAGA | 0.145 |
| TCCCAACTAGTGGGAGAGA | 0.295 |
| TCCCCCTGAGTATCTGAGA | 0.436 |
| TCCCTCTAAGTGAGTGAGA | 0.162 |
| TCCCGGTCAGTTCCTGAGA | 0.26 |
| TCCCTTTTAGTGTATGAGA | 0.271 |
| TCCCGGTTAGTGCTGGAGA | 0.608 |
| TCCCGTTGAGTTAATGAGA | 0.206 |
| TCCCTCTCAGTGTTTGAGA | 0.311 |
| TCCCAAGGAGTAAGGGAGA | 0.325 |
| TCCCTTGGAGTTTGAGAGA | 0.058 |
| TCCCAGTGAGTAAGGGAGA | 0.0789 |
| TCCCGAGTAGTCAGGGAGA | 0.0074 |
| TCCCAGAGAGTGTTGGAGA | 0.452 |
| TCCCTTGGAGTTGGTGAGA | 0.136 |
| TCCCGCATAGTTTAAGAGA | 0.376 |
| TCCCAACCAGTGGCGGAGA | 0.313 |
| TCCCCCGCAGTAGGCGAGA | 0.371 |
| TCCCAACGAGTGGTAGAGA | 0.0691 |
| TCCCCGGCAGTCTGGGAGA | 0.271 |
| TCCCCCTAAGTGACTGAGA | 0.363 |
| TCCCTAATAGTGAAAGAGA | 0.412 |
| TCCCTGGCAGTGGTAGAGA | 0.212 |
| TCCCATGGAGTGGTAGAGA | 0.403 |
| TCCCCTACAGTTATAGAGA | 0.294 |

| Sequence | TetR repression strength |
| --- | --- |
| TCCCGGATAGTACGGGAGA | 0.261 |
| TCCCGAGCAGTACGTGAGA | 0.172 |
| TCCCAAAAAGTCCGCGAGA | 0.236 |
| TCCCAGGTAGTTTGGGAGA | 0.157 |
| TCCCTAAAAGTATGGGAGA | 0.295 |
| TCCCGGAAAGTGGGAGAGA | 0.408 |
| TCCCAGGGAGTTGACGAGA | 0.0614 |
| TCCCTGGCAGTTTTTGAGA | 0.196 |
| TCCCGTTGAGTGCAGGAGA | 0.424 |
| TCCCGGGTAGTCATCGAGA | 0.426 |
| TCCCATGTAGTTGGGGAGA | 0.248 |
| TCCCTGCAAGTTTAAGAGA | 0.196 |
| TCCCGTAGAGTGGTCGAGA | 0.104 |
| TCCCACGCAGTGTTTGAGA | 0.145 |
| TCCCCTGAAGTCGGGGAGA | 0.253 |
| TCCCAACAAGTACTGGAGA | 0.206 |
| TCCCCTGCAGTACGGGAGA | 0.088 |
| TCCCTTGCAGTGGTTGAGA | 0.267 |
| TCCCGGTTAGTCCAGGAGA | 0.248 |
| TCCCCGCGAGTAGTTGAGA | 0.311 |
| TCCCATATAGTTTGGGAGA | 0.175 |
| TCCCGGGGAGTAATCGAGA | 0.057 |
| TCCCCTATAGTGATAGAGA | 0.982 |
| TCCCGGTAAGTGATGGAGA | 0.338 |
| TCCCGGGGAGTGAGCGAGA | 0.15 |
| TCCCTGACAGTAGACGAGA | 0.207 |

| Sequence | TetR repression strength |
| --- | --- |
| TCCCATGCAGTGTTGGAGA | 0.239 |
| TCCCGAAGAGTAAAGGAGA | 0.433 |
| TCCCCTTCAGTAGCAGAGA | 0.258 |
| TCCCTAAGAGTAAACGAGA | 0.446 |
| TCCCGCCGAGTGTGGGAGA | 0.23 |
| TCCCGGAGAGTGACCGAGA | 0.198 |
| TCCCCGGAAGTGATCGAGA | 0.155 |
| TCCCCTCTAGTAACCGAGA | 0.289 |
| TCCCATTAAGTCGGCGAGA | 0.376 |
| TCCCGGACAGTAACGGAGA | 0.312 |
| TCCCGCCGAGTCAAGGAGA | 0.523 |
| TCCCTGCTAGTGCAAGAGA | 0.372 |
| TCCCCGATAGTGGGAGAGA | 0.0854 |
| TCCCTAAGAGTGGCGGAGA | 0.211 |
| TCCCTTCAAGTGGGTGAGA | 0.196 |
| TCCCTTGTAGTAAGCGAGA | 0.125 |
| TCCCTGCTAGTGACAGAGA | 0.21 |
| TCCCTGTCAGTGCCGGAGA | 1.03 |
| TCCCACGCAGTGATAGAGA | 0.415 |
| TCCCGGGAAGTCTGAGAGA | 0.31 |
| TCCCTTCTAGTTAGGGAGA | 0.519 |
| TCCCTTGTAGTAAAGGAGA | 0.228 |
| TCCCATGCAGTGCCCGAGA | 0.18 |
| TCCCTTGGAGTTGAAGAGA | 0.158 |
